Results: the supplement of paper PMC10126150
Sequences with one replicate were seen in a single cluster, so their values are uncertain.

tested on: ATP; test: switch fluorescence ratio, 500 uM ATP over buffer (Cy3 cluster intensity, sum of 5 cycles each) (fold (ratio)); higher = stronger signal-on switching upon ATP binding; sequences stand for … in TCGTCGGCAGCGTCAGATGTGTATAAGAGACAGTTTTTTTTTTTTTTTTTTTTTTTTT…TC; settings: aptamer strand: ATP DNA aptamer (quencher-CACCTGGGGGAGTATTGCGGAGGAAGG + anchor), 100 nM annealed; ATP concentration: 500 uM; one replicate
Method in brief: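 Cy3-labelled switching-strand clusters on a modified Illumina MiSeq flow-cell were annealed to 100 nM quencher-labelled ATP aptamer, imaged in selection buffer, then imaged after 15 min with 500 uM ATP at 22 °C. Five buffer/ATP cycles ran, with NaOH stripping and re-annealing between them. The fluorescence ratio is summed target-cycle over summed buffer-cycle Cy3 intensity per cluster, averaged per switch-domain sequence. Clusters outside 100-1000 RFU were excluded.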
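Further: ATP exposure 15 min at 22 °C before imaging.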

Sequence	switch fluorescence ratio
TAGAAATTAG	1.02
AGGAGGATAA	1.01
TGGGTTCGTT	0.998
CGTTTGAGGC	1.03
TGATCTGGTG	1.03
CATGTGAGAC	1.08
ATGCTTTTG	1.02
GGGCGCATTA	0.916
GCCCTTGTAA	0.978
CTGATGCTGT	1.12
TTTATCCGGC	1.03
AGGTACCAAA	1.03
AAGCACGAG	1.15
CTTGGGATGC	1.06
AGGTCGGCGA	1.03
GCCAATATAG	1.1
CCAAATTGGT	1
TGTGCAACTA	0.96
TGATACTGCG	0.982
AATGCCCGGG	1.03
GGAATCAGT	1.05
AATAACACAC	1.27
GGGCATCG	0.963
AGTTTTTGC	0.985
CGACTTGTTC	1.05

Sequence	switch fluorescence ratio
TTATGGAGGA	0.941
TCAGCCGCTA	1.79
TACTTTTAGC	1.07
ACGTTCTAAA	1.01
GTTCGTTAAT	1.01
TAAGTGTCAG	0.959
ATGTTTTCGA	1.02
ATGGCTTTCC	1.26
TAATCGTGAC	1.04
GAAGTTCGTC	0.893
CAGTCACTTA	1.08
GATACTCAAG	1.01
TTTGCCACCC	0.989
CATTTTTTAA	1.01
TGGGGACGCG	0.987
GAGGCAAGCG	1.15
CAAGGGTCTT	1.01
TTTATCCAA	1.04
TGGATGTCGG	0.976
TCAGCCCTAT	1.02
GAGCGCTTCG	0.967
CGGGAAGCTG	0.906
ATTTGGGCGT	1
TAATGATTGG	0.955
GAAATAGAGA	0.999

Sequence	switch fluorescence ratio
GACCGGAATC	2.28
GATCCATCGT	1.03
ATTATATTGT	0.97
GGGGGCGCAG	1.01
GCAATGCTTT	2.02
TTACACCAGG	2.55
TTTGCGTCAA	1.07
CCCAGAGTGG	1.73
CCAGAAGAAG	0.996
TAGTTTTAAC	1.02
GTAGCGAGCG	0.962
CCGTGGAGTT	1.09
ATGAGGTTCG	0.966
TTCGGACGGA	1.02
CCCCAGCTCC	1.8
ATGCTACATA	1.04
AAGATAGTGG	1.02
AGGTACGACA	1.02
ATATTTAGG	0.975
GACGTGATTT	1.99
AAAATAGTGG	1
TAGCTAACGC	0.996
TCGATACTTA	1.01
CCCAGAACCG	1.07
GGTGAGCCA	0.978

Sequence	switch fluorescence ratio
AGAATATCAA	0.993
TTTCCCTGCC	1.4
GGTCCCCTCT	1.02
AGTGTCCCGT	1.02
CTATAATCTG	1.03
ACTAACGACA	1.31
AGCGACGATT	0.992
GCCGGGCCGT	0.973
ACATTGCCTG	0.996
CGAAAGGCCG	0.982
GGCAAAGGAT	0.975
GCCACTTGCC	0.932
AAACAATTTG	0.969
TTATGCTCGG	1.01
GCATAGGATC	0.981
TGGGTGTCTC	1.01
ATCGGTTAGT	1.04
GACTACGAAT	1.27
GTTCGTACAC	0.994
TTCTGGCTGA	0.956
GTTAGATTTT	0.951
CGAGCCAGGA	1.03
GTGAAGGAGA	1
AGGTGCATGT	1.03
GGGCCCCGTC	1.02

Sequence	switch fluorescence ratio
TCCAGCAAAG	1.84
GCTTCTGTCA	0.931
GGTACTCGCT	0.985
TCCCGTACCT	1.08
TGAAAACTCA	1.02
GGTGAGATTT	1.03
GTTAGTGTCG	0.928
ACTATCAGCA	0.994
CAAGCGCTCG	0.961
GTGCGGGCGA	0.987
TGCAAACAGT	1
ATGAAATAAT	1.02
TTCCTGGTCG	1.03
TACGACCCTC	1.37
GAGTCCTGTG	1.03
TTTCAGGCGG	1.11
TCTGGATTAG	0.985
GACCCCCCGT	0.977
CAATGGTAAG	0.931
CCCAATGCAT	1.05
GAGGGCGTAT	1.01
TACGGGACGT	0.968
TACGGATCAG	0.962
AAGGGTTATC	1.02
AAAATTTCTT	1.02

Sequence	switch fluorescence ratio
GGCAGAGAGT	0.978
TGGGTTGCTA	0.988
CGGTGCGTGG	1.02
AGTCTTTAGC	1
AGCTTTAGG	1.02
AAATGATTCA	1.01
GATGTGGTT	0.971
GGTATCTATT	0.932
GCGTTCTCTT	1.01
TTACACCCAA	1.11
ACTTAACTGG	1.14
CGACTTCGCA	4.57
GGTAAAATAG	1.01
TGTTGATTAG	1.01
AACAAACAAA	1.06
TGACCGGGCA	1.02
GAGTAATTTC	1.06
CTGAGACATG	0.993
CTTGATGGAC	1.04
CAAGAAAGGA	0.989
CCTGAGTGGG	0.963
GGGCTATGGA	0.998
TATATCCTCG	1.07
AGTCGTTGAC	0.999
GGGCTCCACG	0.973

Sequence	switch fluorescence ratio
TACAACAATT	1.05
AGAAAAACGT	0.998
TCTGTCATG	1.05
CTAGGACCGA	1
GGTTGAATCG	0.982
GATTATGCTA	0.99
CTTAGACTTA	0.991
GGTTAATCTG	1.03
CTTTGGCTCG	1.03
ACCGTCCAGG	1.02
GTGACACCCC	1.19
TTTTGGGAA	0.993
TGATCGGATG	0.951
TTGTCAAACA	1.02
AGAATTCGAA	1.02
TACGTCATAG	1.16
CGGACGTTTG	0.98
GAAAATGAGA	0.992
TGTCGGGTCT	1.08
CCATTACTGG	0.998
CCACACTGCA	1.27
AATGTGCATT	1.01
TAGATAGGGC	1.02
TAAATAGATA	0.974
CTTAGACGCG	0.999

Sequence	switch fluorescence ratio
AAATAGACCC	1.01
TACCAGCCCC	1.01
ATGTGGATCT	1
CAACAGCTAT	1.21
TAAAGGCCCG	1.03
TAATCGCGAT	0.974
GGGCACCGGG	0.942
CATACACGGG	1.05
TGCGGCCACC	0.953
CCGATTTTCT	0.993
GCAAAAATCG	1.01
AATAAGAGGT	1.08
GGGCGCTTAT	1.04
CAGGGCGTAG	0.971
GGAGATATAG	1.04
CCGCTTAATG	2.14
CCGCTTAGTG	1.4
GGGTATCCGC	1.08
GGGTACGCCC	1.05
GTCGTGCCCC	0.979
GATGTGTGGT	0.947
TTGTGCCTAG	1.03
AGAGGGGAGA	1.03
AACATTCTTT	1.08
ACGAATTATG	1.02
